Experimental data reported in PubChem BioAssay AID463173 (ICCB-Longwood Screening Facility, Harvard Medical School, 2010).
Among all 52,000 compounds or so, about 1,700 (3.3%) were called active. Cut-off read from the data, not from the text of the source: active = survival mostly below about 52% (no sharp cut-off); inactive = mostly above about 56%. The list shows a part of the results.

Tested on: Wild type
Experiment: growth inhibition of S. aureus wild type versus tarO mutant, primary screen, teichoic acid synthesis inhibitors, RN4220, OD600 (AID 463173)
Conditions: S. aureus RN4220 wild type/DeltatarO growth, OD600, 18 h, hits give low values, screened at 18.75 µg/mL (by protocol)

Compound	survival
O=C(c1ccc2c(c1)N(Cc1ccccc1F)C(=O)c1ccccc1S2=O)N1CCN(c2ccccc2)CC1 (centres undefined)	inactive: 90%
O=C(NCCc1csc(-c2cccc(F)c2)n1)c1cccs1	inactive: 85%
Cc1ccc(-c2noc(CN3C(C)CCCC3C)n2)cc1 (centres undefined)	inactive: 105%
O=C(Cc1ccccc1)Nc1sc2c(c1C(=O)Nc1ccc(Cl)cc1)CCCC2	inactive: 72%
Cc1cccc(NC(=O)CSc2nc3c([nH]c4ccccc43)c(=O)n2C)c1C	inactive: 59%
N#C/C(=C\c1ccc(Cl)cc1)c1nc2ccccc2[nH]1	inactive: 82%
CCOc1ccc(NC(=O)c2ccc(-c3nc(COc4ccccc4)c(C)o3)cc2)cc1	inactive: 89%
CCOC(=O)c1ccc(NS(=O)(=O)c2ccc(Br)s2)cc1	inactive: 64%
COc1ccccc1NC(=O)CSc1oc(-c2cccs2)nc1S(=O)(=O)c1ccc(Br)cc1	inactive: 84%
CC(NC(=O)Nc1ccccc1C(F)(F)F)c1c(-n2cccc2)sc2c1CCCC2 (centres undefined)	inactive: 106%
COc1ccc(NCc2cc3cc4c(cc3n(CC(=O)Nc3ccc(C)cc3)c2=O)OCO4)cc1	inactive: 93%
COC1(OC)CCCc2c1no[n+]2[O-]	inactive: 109%
COc1ccccc1CNC(=O)Cn1ncc2c3ccccc3n(Cc3ccccc3C)c2c1=O	inactive: 85%
CCOc1ccccc1NC(=O)C1CCN(S(=O)(=O)c2ccccc2)CC1	inactive: 71%
COc1ccc(-c2nc(SCC(=O)Nc3ccc4c(c3)OCO4)c(-c3ccc(OC)cc3)[nH]2)cc1	inactive: 75%
CCOc1ccc(S(=O)(=O)N2CCN(c3c(C)cccc3C)CC2)c2ccccc12	inactive: 80%
CN(C(=O)CSc1nc2c(c(=O)[nH]1)CCCC2)c1ccccc1	inactive: 90%
Cc1cc(C)cc(OC(=O)c2snnc2C)c1	inactive: 92%
COc1cc(NC(=O)Cn2ncc3c([nH]c4ccc(C)cc43)c2=O)cc(OC)c1OC	inactive: 82%
COc1cc(C(=O)Nc2ccc3oc(-c4ccccc4)nc3c2)cc(OC)c1OC	inactive: 62%
O=C(NC(Nc1ncccn1)C(=O)c1ccccc1)c1ccccc1 (centres undefined)	inactive: 119%
COc1ccc(NC(=O)CSc2nnc(-c3cccs3)o2)cc1	inactive: 88%
CCOc1ccccc1Nc1cc(-c2ccccc2)nc(C)n1	inactive: 78%

Compound	survival
Cn1c2ccccc2c2c(C(=O)N3CCN(c4ccc(F)cc4)CC3)cn(C3CCCCC3)c(=O)c21	inactive: 133%
COc1cc(Cl)c(C)cc1NC(=O)CSc1ncc(S(=O)(=O)c2ccc(C(C)(C)C)cc2)c(=O)[nH]1	inactive: 102%
O=C1Nc2ccc(S(=O)(=O)Nc3ccccc3O)c3cccc1c23	inactive: 88%
Cc1cc(Cl)c2cccc(Br)c2n1	inactive: 101%
Cc1ccc(C(=O)ON=C2CCN(C)CC2)cc1	inactive: 108%
O=C(O)/C=C/C(=O)Nc1nnc(-c2ccccc2F)s1	inactive: 117%
CC(C)CCN(Cc1ccco1)C(=O)c1cc2c(Cl)nc3ccccc3c2s1	inactive: 77%
Cc1ccc(S(=O)(=O)CC(=O)Nc2sc3c(c2C#N)CCCCC3)cc1	inactive: 64%
CN(C)c1ccc(-n2nc3ccc4ccccc4c3n2)cc1	inactive: 109%
CCOc1ccc(C2Nc3ccccc3-c3nnc(SCc4ccccc4)nc3O2)cc1OC (centres undefined)	inactive: 83%
CC(Oc1ccccc1)C(=O)Nc1ccccc1 (centres undefined)	inactive: 117%
COc1ccc(-c2noc(CSCC(=O)Nc3cccc(C(F)(F)F)c3)n2)cc1OC	inactive: 75%
CC(=O)Nc1cccc(NC(=O)C2CCCN2C(=O)Nc2ccccc2Cl)c1 (centres undefined)	inactive: 107%
CCCOc1ccc(-c2nn(-c3ccccc3)cc2C2NC(=O)NC(C)=C2C(=O)OC)cc1C (centres undefined)	inactive: 67%
CCOc1ccccc1NC(=O)Nc1nnc(N2CCCCCC2)s1	inactive: 85%
Cc1ccccc1CNC(=O)C1CCCN(S(=O)(=O)N(C)c2ccc(F)cc2)C1 (centres undefined)	inactive: 90%
CCC(=O)N1CCc2cc(Br)cc(S(=O)(=O)CCC(=O)NCCc3ccc(Cl)cc3)c21	inactive: 80%
CCc1cccc(NC(=O)c2ccc(CN3C(=O)C(C)=C(c4ccc(OC)cc4)S3(=O)=O)cc2)c1	inactive: 82%
CCc1ccc2oc(-c3cccc(NC(=O)c4ccc(N5CCC(C)CC5)c([N+](=O)[O-])c4)c3)nc2c1	inactive: 71%
COc1cccc(NC(=O)Cn2cc(S(=O)(=O)N3CCCC3)c(S(=O)(=O)N3CCCC3)c2)c1	inactive: 99%
Cc1ccccc1CNC(=O)Cn1ncn2nc(-c3cccs3)cc2c1=O	inactive: 120%
CCOc1ccccc1CNC(=O)c1cc2cc(S(=O)(=O)N3CCCCC3)ccc2n1C	inactive: 75%
CC(=O)Nc1ccc(NC(=O)CCNS(=O)(=O)c2cccc3nsnc23)cc1	inactive: 89%

Compound	survival
CCC(Oc1ccccc1)C(=O)Nc1ccc2oc(-c3ccc(OC)cc3)nc2c1 (centres undefined)	inactive: 116%
Cc1cccc(CSc2cn(CC(=O)N3CCCC3)c3ccccc23)c1	inactive: 67%
Cc1cc(N2CCCCC2)nc2ccc(NC(=O)/C=C/c3ccccc3OC(C)C)cc12	inactive: 84%
CC1(C(=O)C[n+]2cccc(C(N)=O)c2)CCC(=O)O1 (centres undefined)	inactive: 102%
O=C(COc1ccc(S(=O)(=O)NC2CCCCC2)cc1)Nc1ccc(C(F)(F)F)cc1	inactive: 80%
CCOc1ccc(N(CC)S(=O)(=O)N2CCCC(C(=O)NCc3ccccc3Cl)C2)cc1 (centres undefined)	inactive: 85%
CCOc1cccc(CC(=O)N2CCc3c([nH]c4ccccc34)C2c2ccc(F)cc2)c1OCC (centres undefined)	inactive: 65%
Cc1ccc(CNC(=O)CSCc2ccc(F)cc2)cc1	inactive: 101%
O=S(=O)(c1ccccc1)n1nc(-c2ccccc2)nc1NCc1ccc(Cl)cc1	inactive: 73%
Cc1ccc(C(=O)COC(=O)C(CC(C)C)NC(=O)C2CCC(C)CC2)cc1 (centres undefined)	inactive: 85%
CCc1ccccc1NC(=O)c1ccc2nc(CCc3ccccc3)oc2c1	inactive: 80%
CCCCNC(=O)CCn1c(=O)c2ccccc2n(Cc2ccccc2C#N)c1=O	inactive: 89%
CCOc1ccc(CC(=O)Nc2c(C(=O)c3ccc(C)cc3)oc3ccccc23)cc1OCC	inactive: 56%
CCC(=O)N1CCc2cc(Br)cc(S(=O)(=O)N3CCCC(C(=O)Nc4cccc(Cl)c4C)C3)c21 (centres undefined)	inactive: 94%
COc1cc(C2N=C(N)Nc3nc4ccccc4n32)ccc1OCCC(C)C (centres undefined)	inactive: 85%
O=C(Cc1cccc([N+](=O)[O-])c1)NCc1nc2cccnc2n1Cc1ccc(F)cc1	inactive: 133%
CC(=O)c1cccc(NC(=O)C2CCCN(c3nnc(-n4cccc4)s3)C2)c1 (centres undefined)	inactive: 71%
CCOc1ccc(NS(=O)(=O)c2cc(Br)cc3c2N(C(=O)C2CC2)CC3)cc1	inactive: 63%
CCCN(CCC)CCCNC(=O)C1CCCN(S(=O)(=O)c2cccc3nsnc23)C1 (centres undefined)	inactive: 80%
Cn1c(=O)cc(OCCCC(=O)Nc2ccc(F)cc2)c2ccccc21	inactive: 129%
Cc1ccccc1-c1nc(CS(=O)(=O)CC(=O)N2CCN(c3ccccc3)CC2)c(C)o1	inactive: 74%
CCOC(=O)c1cc(C)n(CC2CCC(C(=O)Nc3ccc(Cl)cc3)CC2)c1C (centres undefined)	inactive: 64%
CCC1CCc2nc3sc(C(=O)Nc4ccc(F)cc4F)c(N)c3cc2C1 (centres undefined)	inactive: 92%

Compound	survival
COc1cc(OC)c(NC(=O)NC(C)c2c(-n3cccc3)sc(C)c2C)cc1Cl (centres undefined)	inactive: 127%
Cc1ccc2cccc(NC(=O)c3ccc(-c4cccc([N+](=O)[O-])c4)o3)c2n1	inactive: 93%
CCC(C)C(=O)N1CCCC(c2nc(-c3cccs3)no2)C1 (centres undefined)	inactive: 112%
COc1cc(NS(=O)(=O)c2ccc(NC(=O)c3ccccc3C(=O)O)cc2)nc(OC)n1	inactive: 68%
CCCCNC(=O)CSc1nc2nc(C)c(Cc3ccccc3C)c(C)n2n1	inactive: 67%
CC(=O)Nc1cccc(C(=O)NCc2ccc3c(c2)CCN3C(=O)c2ccccc2)c1	inactive: 63%
CCOc1ccc(CCNC(=O)Cn2nnc(-c3ccccc3)n2)cc1OCC	inactive: 98%
COc1ccc(/C=C/c2nc(C#N)c(NCCc3ccc(OC)c(OC)c3)o2)cc1OC	inactive: 113%
COc1cccc(C(=O)Nc2cc(-c3ccccc3)no2)c1	inactive: 81%
CC(C)CC(=O)Nc1ccc(C(=O)OCc2cc(=O)n3nc(C(C)C)sc3n2)cc1	inactive: 138%
COc1ccc(C(=O)N2CC(=O)Nc3ccc(F)cc3C2c2ccc(F)cc2)c(OC)c1 (centres undefined)	inactive: 79%
Cc1cc(C)cc(NS(=O)(=O)c2ccc3[nH]cc(C(=O)N4CCCC4)c(=O)c3c2)c1	inactive: 77%
CCOc1ccccc1NC(=O)Cn1cnc2onc(-c3ccc(F)cc3)c2c1=O	inactive: 82%
O=C(OCc1cc(=O)n2nc(C3CC3)sc2n1)c1ccc(F)cc1	inactive: 82%
Cc1ccc(NC(=O)c2oc3ccccc3c2NC(=O)c2cc3ccccc3o2)cc1	inactive: 70%
O=C(CSc1cn(CCNC(=O)c2c(F)cccc2F)c2ccccc12)Nc1ccc2c(c1)OCCO2	inactive: 72%
CC(C)CC(NS(=O)(=O)c1ccc2c(c1)oc(=O)n2C)C(=O)NCCc1ccc(Cl)cc1 (centres undefined)	inactive: 79%
COC(=O)c1ccc(NC(=O)c2cc(S(=O)(=O)N3CCc4ccccc43)cn2C)cc1	inactive: 101%
COc1ccc(-n2c(=O)c3ccc(C(=O)NCc4ccc(C)cc4)cc3n(CC(=O)Nc3ccc(F)cc3)c2=O)cc1	inactive: 83%
O=C(NCc1cccnc1)C1CCN(Cc2cc3ccccc3n2Cc2cccc(Cl)c2)CC1	inactive: 75%
